Results on 20 variants are retold here after the RNAGym collection of RNA variant scans (doi:10.7554/elife.90254).

B1: LINE1-full (parent)
chain: UACGUAGGUGGUUUUCCCCUGAUAGUGCUAAGGGGGCCUGGAAGUUUGGACUGGGCAGAGCUCAACACAGCGUGGCAAAGUGGCUGUGGCUAGACUGCCUCUCUGGAUUCCUCGUCACUCAGCAGGGCAUCUCUGAGAGAAAUGCC

Read counts are not given, so values of variants with three or more changes are uncertain.

Variants of B1 are the subject of the data set. As to the kind of experiment: self-cleavage, relative activity (ratio to wild type); higher = more cleavage; in vitro, sequencing; the parent is a self-cleaving ribozyme.
Consider UACGUAGGUGGUUUUCCCCUGUUAGUGCUAAGGGGGCCUGGAAGUUUGGACUGGGCAGAGCUCAACACAGCGUGGCAAAGUGGCUGUGGCUAGGCUGCCUCUCUGGACUCCUCGUCACUCAGCAGGGCAUAUCUGAGAGAAAUGCC [A22U A94G U108C C131A], for which the self-cleavage is 0.55.
As to UACGUAGGUGGCUUUCCCCUGAGAGUGCUAAGGGGGCCUGGAAGUUUGGACUGGGCAGAGCUCAACACAGCGUGGCAAAGUGGCUGAGGCUAGAUUGCCUCUCUGGAUUCCUCGUCACUCAGCAGGGCAUCUCUGAGAGAAAUGCC [U12C U23G U87A C95U], the self-cleavage turned out to be 0.05.
To UACGUAGGUGGUUUUCCCCUGAUAGUGCUAAGGGGGCCUGGAAGUUUGGACUGGGCAGGGCUCAACACAGCGAGGCAAGGUGGCUGUGGCUAGACUGCCUCUCUGGAUUCCUCGUCACUCAGCAGGGCAUCUUUGAGAGAAAUGCC [A59G U73A A79G C133U] belongs 0.
The same measure for UACGUAGGUGGUUUCCCCCUGAUAGUGCUUAGGGGGCCUGGAAGUUUGGACUGGGCAGAGCUCAACACAGCGUGGCAAAGUGGCUGUGGCUAGACUGCCUCUCUGGAUUCCUCGACACUCAGCAGGGCAUCUCUGAGAGAAAUGCC [U15C A30U U115A]: 0.9; for UACGUAGGUGGUUUUCCCCUGAUAGUGCUAAUGGGGCCUGGAAGUUUGGACUGGGCAGAGCUCAACACGGCGUGGCAAAGUGGCUGUGGCUAGACUGCCACUCUGGAUUCCUCGUCACUCAGCAGGGCAUCUCUGAGAGAAAUGCC [G32U A69G U100A]: 0.21.
With UACGUAGGUGGUUUUCCCCUGAUAGUGCUAAGGGGGCCUGGAAGUUUGGACAGGGCAGAGCUCAACACAGCGUGGCAAAGUGGCUGUGGCUAGACUGCCUCUCUGGAUUCCUCGUCACCCAGCAGGGCAUCUCUGAGAGAAGCGCC [U52A U119C A142G U143C], the self-cleavage is 1.92.
With UACGUAGGUGGUCUUCCCCUGAUAGUGCUAAGGGGGCCUGGAAGUUUGGACUGGGCAGAGCUCAACACAGCGUGGCAAAGUGGCUGUGGCUAGGCUACCUCUCUGGAUUCCUCGUCACUCAGCAGGGCAUCUCUGAGAGAAAUGCC [U13C A94G G97A], the self-cleavage was 0.13.
The same measure for UACGUAGGUGGUUUUCCCUUGAUAGUGCUAAGGGGGCCUGGAAGUUUGGACUGGGCAGAGCACAACCCAGCGUGGCAAAGUGGCUGCGGCUAGACUGCCUCUCUGGAUUCCUCGUCACUCAGCAGGGCAUCUCUGAGAGAAAUGCC [C19U U62A A67C U87C]: 0; for UACGUAGGUGGUUUUCCCCUGAUAGUGCUAAGGGGGCCUGGAAGUUAGGACUGGGCAGAGCUCAGCACAGCGUGGCAAAGUGGCUUUGGCUAGACUGCCUCUCUGGAUUCCUCGUCACUCAGCAGGGCAUCUCUGGGAGAAAUGCC [U47A A65G G86U A136G]: 0.03; for UACGUAGGUGGUUUUCCCCUGAUAGUGCUAAGGGGGCCCGGAAGUUUGGACUGGGCAGAGCUCAACACAGCGCGGCAAAGUGGCUGUGGCUAGUCUGCCUCUCUGGAUUCCUCGUCACUCAGCAGGGCAUCUCUGAGAGAAAUGCC [U39C U73C A94U]: 0.29.
Regarding UACGUAGGUGGUUUUCCCCUGAUAGUGCUAAGGGGGCCUGGAAGUUUGGACUGGGCAGAGCUCAACACAGCGUGGCAAAGUGGCUGUGGCUAGACUGCCUCUCUGGAUACCUCGUCACUCAGCAGGUCAUCUCUGAGAGAAGUGCC [U109A G127U A142G], the self-cleavage came out at 1.4.
Consider UACGUGGGUGGUUUUCCCCUGAUAGUGCUAAGGGGGCCAGGAAGUUUGGACUGGGCAGAGCUCAACACAGCGUGGCAAAGUGGCUGUGGCUAGACUGCCCUUCUGGAUUCCUCGUCACUCAGCAGGGCAUCUCUGAGAGAAAUGCC [A6G U39A U100C C101U], for which the self-cleavage was 0.33.
As for UACGUAGGUGGUUUUCCCCUGAUAGUGCUAAGGGGGCCUGGAGGUUUGGACAGGGCAGAGCUCAACGCAGCGUGGCAAAGUGGCUGUGGCUAGACUGCCUCUCUGGAUUCCUCGUCACUCAGCAGGGCAUCUCCGAGAGAAAUGCC [A43G U52A A67G U134C], the self-cleavage turned out to be 0.
To UACGUAGGUGGUUUUCCCCUGAUAGUGCUAAGGGGGCCUGGAGGUUUGGACUGGGCAGAGCUCAACACAGCGUGGCAAAGUGGCAGUGGCUAGACUGCCUCUCUGGAUUCCUCGUCACUCAGCAGGGCAUCUCUGAGGGAAGUGCC [A43G U85A A138G A142G] belongs 0.07; to UACGUAGGUGGUUUUCCCCUGAUAGUGCUAAGGGGGCCUGGAUGUUUGGACUGGGCAGAGCUCAACGCUGCGUGGCAAAGUGGCUGUGGCUAGACUGCCUCUCUGGAUUCCUCGUCACUCAGCAGGGCACCUCUGAGAGAAAUGCC [A43U A67G A69U U130C], 0.23; to UACGUAGGUAGUUAUCCCCUGAUAGUGCUAAGGGGGCCUGGAAGUUUGGACUGGGCAGAGCUCAGCACAGCGUGGCAAAGUGGCUGUGGCUAGACUGCCCCUCUGGAUUCCUCGUCACUCAGCAGGGCAUCUCUGAGGGAAAUGCC [G10A U14A A65G U100C A138G], 0.
The same measure for UACGUAGGUGGUUUUCCCCUGAUAGUGCCAAGGGGGCCUGGAAGUAUGGACUGGGCAGAGCUCGACACAGCGUGGCAAAGUGGCUGUGGCUAGACUGCCUCUCUGGAUUCCUCGUCACUCAGCAGGGCAUCUCUGAGGGAAAUGCC [U29C U46A A64G A138G]: 0.22; for UACGUAGGUGGCUUUCCCCUGAUAGUGCUAAGGGGGCCAGGAAGUUUGGACUGGGCAGAGCUCAGCACAGCGUGGCAAAGUGGCUGUGGCUAGACUGCCUCUCUGGAUUCCUCGUCACUCAGCAGGGCAUCUCUGAGAGGAAUGCC [U12C U39A A65G A140G]: 0.07.
For UACGUAGGUGGUUUUCCCCUGAUAGCGCAAAGGGGGCCUGGAAGUUUGGACUGGGCAGAGCUCAACACAGCGUGGCAAAGUGGCUGUGGCUAGACUGCCUCUCUGGAUUCCACGUCACUCAGCAGGACAUCUCUGAGAGAAAUGCC [U26C U29A U112A G127A], the self-cleavage was found to be 0.67.
Consider UACGUAGGUGGUUUUCCCCUGAUAGUGCUAAGGGGGCCUGGAAGUUUGGACUGGGCAGAGCUCAACACAGCGUGGCAAAGUGGCUGUGGCUGGACUGCCUCUCUGGAUUCCUCGUCACUCAGCUGGGCGUCUCUGAGAGAAAUGCC [A92G A124U A129G], for which the self-cleavage is 0.
